Test results reported in PubChem BioAssay AID485344 (National Center for Advancing Translational Sciences (NCATS), 2010).
Among all 340,000 compounds or so, about 6,900 (2%) were called active. No stated cut-off is given here; in the data, active means inhibition above about 30%; inactive means below that, where a call was filed. The entries are a selection whose mix differs from that of the whole data set. Entries without a call were filed so in the source.

Target: D(2) dopamine receptor (Homo sapiens) (UniProt P14416)
Sequence of UniProt P14416 (P14416 whole entry, looked up): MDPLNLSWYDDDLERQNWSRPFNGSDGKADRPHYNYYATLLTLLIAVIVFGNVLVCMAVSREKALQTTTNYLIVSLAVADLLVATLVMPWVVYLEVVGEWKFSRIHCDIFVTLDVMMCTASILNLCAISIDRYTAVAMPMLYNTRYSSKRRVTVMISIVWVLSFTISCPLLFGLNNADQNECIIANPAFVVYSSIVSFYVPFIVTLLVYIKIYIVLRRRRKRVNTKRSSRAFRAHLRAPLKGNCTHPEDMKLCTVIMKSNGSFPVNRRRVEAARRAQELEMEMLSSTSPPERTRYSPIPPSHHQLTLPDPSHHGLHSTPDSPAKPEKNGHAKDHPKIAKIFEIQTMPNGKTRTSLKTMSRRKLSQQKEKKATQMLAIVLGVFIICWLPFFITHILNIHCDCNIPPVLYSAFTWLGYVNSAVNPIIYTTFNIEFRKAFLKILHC
Test: HTS Assay for Allosteric Antagonists of the Human D2 Dopamine Receptor: Primary Screen for Antagonists; further: 0% is about no effect
Conditions: HEK293 TREx D2 cells, calcium flux, dopamine EC80; at 10 µM; stronger effect = higher value
How it was run: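 Calcium flux kinetic readout in an inducible HEK293 TREx D2 line plated overnight at 30 C. After 180 s compound exposure, an EC80 dopamine challenge follows with another 180 s kinetic read to detect antagonism.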

| Structure (SMILES) | inhibition |
| --- | --- |
| COc1cccc(NC(=O)CN2C(=O)CSc3ccc(S(=O)(=O)N4CCCC4)cc32)c1 | 9.81% |
| Cc1cc(N2CCCCC2)nc2ccc(NC(=O)/C=C/c3ccc(OC(C)C)cc3)cc12 | -6.6% |
| CCCN1CCN(C(=O)Cn2c(-c3cccs3)cc3ccccc32)CC1 | 13.7% |
| COCCCNC(=O)C1CCN(C(=O)c2cnn(-c3ccccc3)c2-n2cccc2)CC1 | -3.92% |
| Cc1ccc(NC(=O)c2cnc(N3CCCCC3)c3ccccc23)c(C)c1 | -3.17% |
| CCCCOc1ccc(C2=NC(c3cccs3)=Nc3ccc(CC)cc3N2)cc1 | -6.13% |
| C=CCN(CC=C)S(=O)(=O)c1ccc(F)cc1 | active: 30.9% |
| COc1ccc(S(=O)(=O)n2nc(C)c(S(=O)(=O)N3CCCCCC3)c2C)cc1 | 4.28% |
| COC(=O)c1cc(S(=O)(=O)N2CCN(c3ccc(OC)cc3)CC2)c[nH]1 | -10.5% |
| COc1ccc(-c2[nH]ncc2CN2CCC(C(=O)c3ccc(F)cc3)CC2)cc1 | active: 82.9% |
| Cc1nn2c(=O)cc(COC(=O)c3cccc(NC(=O)COc4ccccc4Cl)c3)nc2s1 | 10.3% |
| Cc1ccc(C(=O)c2cn(Cc3cccc(C)c3)c3nc(C)ccc3c2=O)cc1 | 4.2% |
| O=C(C[n+]1ccccc1)N/N=C/c1cc(Br)ccc1O | active: 36.4% |
| COc1ccc(NC(=O)Cn2c(=O)n(-c3ccccc3)c(=O)c3c4c(sc32)CCCC4)c(OC)c1 | 22.7% |
| Cc1ccc(NC(=O)CSc2ncc(S(=O)(=O)c3ccc(C(C)C)cc3)c(=O)[nH]2)cc1C | 12.8% |
| CC(C)Oc1ccc(CNS(=O)(=O)c2ccc3c(c2)C(C)(C)C(=O)N3C)cc1 | -1.76% |
| Cc1ccc(CNC(=O)c2nc(SCc3ccc(F)cc3)ncc2Cl)cc1 | -6.85% |
| CCCNC(=O)COc1ncnc2sccc12 | active: 33.1% |
| CCCN(CCC)C(=O)Cn1nnc2sc(-c3ccccc3)cc2c1=O | -6.87% |
| Cc1cc(Br)ccc1OCCCCN1CCC(C)CC1 | active: 35.1% |
| O=c1c2cnn(-c3ccc(F)cc3)c2ncn1Cc1cccc(Cl)c1 | 4.82% |
| CCn1c(=O)c2cc(C(=O)NCCCOC)sc2c2ccccc21 | 7.9% |
| O=C(NC1CCN(Cc2ccccc2)CC1)c1cccc(S(=O)(=O)Nc2ccc(Br)cc2)c1 | active: 34.1% |
| Cc1cc(C)n(-c2nc3ccccc3nc2Nc2ccc(Cl)cc2Cl)n1 | 2.14% |

| Structure (SMILES) | inhibition |
| --- | --- |
| CCC(C)c1ccccc1OCCCNC1CCCC1 (stereo not drawn) | active: 77.7% |
| COc1ccc(CNC(=O)CCC2N=C3c4ccccc4N=C(SCc4cccc(F)c4)N3C2=O)cc1 (stereo not drawn) | -5.51% |
| CC(=O)N1CCCc2cc(S(=O)(=O)NCc3cccc(C)c3)ccc21 | -2.63% |
| CCOc1ccc(CCNS(=O)(=O)c2c(C)nc3scc(C)n3c2=O)cc1OCC | -15.9% |
| CCCn1c2ccccc2c2cnn(CC(=O)N3CCN(c4ccccc4F)CC3)c(=O)c21 | 9.16% |
| COc1cc(C(=O)NC2CCCc3ccccc32)cc(OC)c1C (stereo not drawn) | active: 55.3% |
| Cc1ccc(Nc2c(-c3ccc(Cl)cc3)nc3sccn23)c(C)c1 | 6.04% |
| COc1cccc(N2CCN(C(=O)CCCn3c(=O)[nH]c4ccc(Br)cc4c3=O)CC2)c1 | -6.07% |
| CC(C)Oc1cccc(C(=O)Nc2ccc3oc(-c4cccc(Cl)c4)nc3c2)c1 | -2.69% |
| CCOc1ccc(CNC(=O)c2ccc3nc(CC)c(CC)nc3c2)cc1 | -2.16% |
| Cc1ccc(C)c(NC(=O)N2CCC(CN3CCOCC3)CC2)c1 | -19.4% |
| CCNc1ccc(-c2nc(-c3ccccn3)no2)cc1[N+](=O)[O-] | 16.9% |
| Cc1cc(NC(=O)COCc2cc(-c3ccc(F)cc3)on2)ccc1Br | -3.56% |
| COc1ccc(-c2onc(C)c2C)cc1S(=O)(=O)NCC(C)c1ccccc1 (stereo not drawn) | 6.56% |
| O=C(CCCCn1c(=O)c2ccccc2n(Cc2ccccc2Cl)c1=O)NCc1ccc2c(c1)OCO2 | -27.7% |
| Cn1c(=O)c2c(n3c4ccccc4nc13)NC(=O)CC2c1cccc(F)c1 (stereo not drawn) | -8.93% |
| COc1ccc(OC)c(CNS(=O)(=O)c2ccc3[nH]c4c(c3c2)CCCCC4)c1 | -5.78% |
| COc1cc(CN2CCN(Cc3ccc(C)cc3)C(CCO)C2)cc(OC)c1O (stereo not drawn) | active: 57% |
| Cc1ccc(NC(=O)CSc2nccn2Cc2ccco2)cc1Cl | 15.2% |
| O=c1ccc2cc(S(=O)(=O)NCc3ccc(Br)cc3)ccc2[nH]1 | -7.64% |
| CCC(=O)N1CCc2cc(S(=O)(=O)NC(CC(C)C)C(=O)NCCc3cccc(C)c3)ccc21 (stereo not drawn) | -3.97% |
| Cc1ccc2oc(-c3ccc(Cl)cc3)c(O)c(=O)c2c1 | -19.2% |
| CCOc1ccc(-c2nn(-c3ccc(F)cc3)c3c2cnc2ccc(F)cc23)cc1 | 5.73% |
| Cc1cc(O)c(C(c2ccccc2)N2CCN(c3ccccc3)CC2)c(=O)n1Cc1ccco1 (stereo not drawn) | 0.192% |
